Laboratory results as given in PubChem BioAssay AID485294 (National Center for Advancing Translational Sciences (NCATS), 2010).
In all, about 370,000 compounds went through this assay and about 150 (0.041%) were called active. The inconclusive results got no clear call from the source; some entries with a clear call stand among them for comparison. Calls come from the whole dose curve; as a rule, active = well fitted inhibition curve with a large enough effect; inconclusive = small, poorly fitted or top-dose-only effect; inactive = flat fitted curve, though single readings scatter. Potencies of inconclusive entries are left out as doubtful fits.

These compounds were tested against Beta-lactamase (Escherichia coli (strain K12)) (UniProt P00811) (assay: qHTS Inhibitors of AmpC Beta-Lactamase (assay with detergent)). Settings: AmpC hydrolysis of nitrocefin, absorbance 480 nm, 0.01% Triton; series mostly up to 114 µM.
Chain of UniProt P00811 (P00811 whole entry, looked up): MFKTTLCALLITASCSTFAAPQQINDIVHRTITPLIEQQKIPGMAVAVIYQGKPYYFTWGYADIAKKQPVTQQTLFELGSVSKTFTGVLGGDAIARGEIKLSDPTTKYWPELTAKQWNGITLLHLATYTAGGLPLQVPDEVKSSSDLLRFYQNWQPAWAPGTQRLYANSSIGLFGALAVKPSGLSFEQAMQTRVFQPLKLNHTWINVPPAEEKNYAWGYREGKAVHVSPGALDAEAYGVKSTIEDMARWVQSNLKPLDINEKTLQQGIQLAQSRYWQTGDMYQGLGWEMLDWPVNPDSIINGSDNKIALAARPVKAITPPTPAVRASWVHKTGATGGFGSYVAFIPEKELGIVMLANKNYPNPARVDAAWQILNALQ
How it was run: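 20 mM phosphate pH 7.0 + 0.01% (detergent screen) or 0.0001% Triton X-100; 5.3 nM AmpC reagent; cpd preinc 15 min RT; nitrocefin (800 uM stock) to start; A480 q20 s × 4 min; Activity was normalised to no-enzyme and no-compound control wells.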
Note: nearly all actives have a fitted effect of over 25% in size.
Potency is the fitted concentration of half-maximal effect; tags give direction and shape of the fitted curve.

Row | Structure (SMILES) | Potency
1 | COc1ccccc1-c1c(-c2ccc(O)cc2O)n[nH]c1C(F)(F)F | inactive
2 | Cc1cccc(N(C(=O)CCC(=O)Nc2cccnc2)C(C(=O)NC2CCCC2)c2ccncc2)c1 (configuration not stated) | inconclusive [inhibitor, full curve, poor fit]
3 | Cc1ccc(S(=O)(=O)N2CCN(C(=O)COC(=O)Cc3ccc(F)cc3)CC2)c(C)c1 | inconclusive [inhibitor, full curve, poor fit]
4 | O=C(Oc1ccc(Nc2ncnc3ccccc23)cc1)c1cccnc1 | inactive
5 | COc1ccccc1CN1CC(C(=O)NCCN2CCOC2=O)CCC1=O (configuration not stated) | inconclusive [inhibitor, single point]
6 | O=C(O)Cn1c(P(=O)(O)c2ccccc2)nc2ccccc21 | inconclusive [inhibitor, partial curve, poor fit]
7 | CCc1c(C)nc(SCC(=O)Nc2ccc(Br)cc2)[nH]c1=O | inconclusive [inhibitor, partial curve, poor fit]
8 | C/C(=N/NS(=O)(=O)c1ccc(Cl)cc1)c1ccncc1 | inconclusive [inhibitor, full curve, poor fit]
9 | O=C(CCc1ccc(S(=O)(=O)N2CCOCC2)cc1)Nc1nccs1 | inconclusive [inhibitor, partial curve, poor fit]
10 | O=C(c1ccc([N+](=O)[O-])cc1Cl)N1CCN(c2ccccn2)CC1 | inactive
11 | CC(=O)Nc1ccc(C(=O)OCC(=O)NC(=O)NC(C)(C)C)cc1 | inconclusive [inhibitor, single point]
12 | COc1ccccc1N1C(=O)CC(Nc2ccc(N3CCOCC3)cc2)C1=O (configuration not stated) | inactive
13 | CS(=O)(=O)N(CC(=O)NCc1ccccc1)Cc1ccc(Cl)cc1 | inconclusive [inhibitor, full curve, poor fit]
14 | CC(C)(C)c1ccc(-c2nc(C=O)c3ccccn23)cc1 | inconclusive [inhibitor, single point]
15 | COc1ccccc1NC(=O)CSc1nc2c(oc3ccccc32)c(=O)n1-c1ccc(C)cc1 | inactive
16 | O=C(CC1C(=O)NCCN1Cc1ccc(Cl)c(F)c1)NCC1CCOCC1 (configuration not stated) | inactive
17 | Cc1ccc(N2C(=O)c3cccc4c([N+](=O)[O-])ccc(c34)C2=O)c2cccnc12 | inactive
18 | CCOC(=O)c1ccccc1NC(=O)CN(c1ccccc1OC)S(=O)(=O)c1ccc(C)cc1 | inactive
19 | Fc1ccc(NC(=S)NN=C2CCCCCC2)cc1 | inconclusive [inhibitor, full curve, poor fit]
20 | CN(C)Cc1ccc(O)c(CCc2ccccc2)n1 | inconclusive [inhibitor, single point]
21 | Cc1ccc(C(=O)CCC(=O)NCc2ccc(Cl)cc2)cc1 | inconclusive [inhibitor, full curve, poor fit]

Row | Structure (SMILES) | Potency
22 | CS(=O)(=O)N(CC(=O)N1CCOCC1)c1cccc(F)c1 | inconclusive [inhibitor, full curve, poor fit]
23 | CCOc1ccc(CCNS(=O)(=O)c2ccc(-c3ccc(=O)[nH]n3)o2)cc1OCC | inconclusive [inhibitor, partial curve, poor fit]
24 | O=C(CCNC(=O)c1ccccc1Cl)Nc1nnc(C2CC2)s1 | inconclusive [inhibitor, partial curve]
25 | Cc1ccc(C)c(S(=O)(=O)N2CCCCC2CCNC(=O)C(=O)NCc2ccco2)c1 (configuration not stated) | inconclusive [inhibitor, single point]
26 | Cc1[nH]c(-c2ccc(F)cc2)cc1C(=O)N1CCN(c2ccccc2)CC1 | inconclusive [inhibitor, full curve, poor fit]
27 | COc1ccc(-c2c(-c3ccc4c(c3)OCO4)noc2C)cn1 | inactive
28 | O=C(NCc1cccs1)[C@@H]1CSC2c3ccccc3C(=O)N21 (some centres not stated) | inactive
29 | O=C(CNC(=O)c1cccc(Br)c1)N/N=C/c1ccc2c(c1)OCO2 | inactive
30 | CSc1ccc(CNC(=O)CCn2ccc3cc(S(=O)(=O)N4CCCC4)ccc32)cc1 | inconclusive [inhibitor, full curve, poor fit]
31 | Cc1ccc(S(=O)(=O)C2(C(=O)Nc3ccc4c(c3)OCO4)CC2)cc1 | inconclusive [inhibitor, full curve, poor fit]
32 | Cc1cccc(NC(=O)CN2C(=O)N/C(=C/c3cc(C)n(-c4cccnc4)c3C)C2=O)c1 | inconclusive [inhibitor, single point]
33 | COc1ccc(C)cc1NC(=O)CN1CCN(c2ccccn2)CC1 | inconclusive [inhibitor, single point]
34 | COc1ccc(-c2cc(N3CCCC3)n3ncnc3n2)cc1 | inactive
35 | O=C(NCc1ccncc1)Nc1cccc(Cl)c1 | inconclusive [inhibitor, single point]
36 | CCOC(=O)N1CCN(C(=O)c2ccc(N3CC4CC(C3)c3cccc(=O)n3C4)c(NC(=O)c3ccc(F)cc3)c2)CC1 (configuration not stated) | inconclusive [inhibitor, full curve, poor fit]
37 | Cc1cccc(NC(=O)COc2ccc3c(c2)CCC3)n1 | inactive
38 | CCCCC(CC)C(=O)Nc1cc(C(=O)NCc2ccc(C)cc2)ccc1N1CCC2(CC1)CC(c1ccccc1)=NO2 (configuration not stated) | inconclusive [inhibitor, full curve]
39 | Cc1ccccc1C(=O)Nc1ccc(Br)cn1 | inconclusive [inhibitor, full curve, poor fit]
40 | COc1ccc(-c2cc(C(F)(F)F)n3nc(C(=O)NCc4ccco4)cc3n2)cc1OC | inconclusive [inhibitor, full curve, poor fit]
41 | COc1ccc(S(=O)(=O)N2CCCCCC2)cc1C(=O)Nc1cc(C)ccn1 | inconclusive [inhibitor, partial curve, poor fit]
42 | O=C(COc1cccc(C(F)(F)F)c1)NNC(=O)Cn1c(=O)cnc2ccccc21 | inconclusive [inhibitor, full curve, poor fit]
